# The list shows a part of the results. Values were computed here from the reads of four pooled replicates and scatter widely.
# Molecular target: T1, Pho4 (S. cerevisiae) (UniProt P07270)
# T1 sequence: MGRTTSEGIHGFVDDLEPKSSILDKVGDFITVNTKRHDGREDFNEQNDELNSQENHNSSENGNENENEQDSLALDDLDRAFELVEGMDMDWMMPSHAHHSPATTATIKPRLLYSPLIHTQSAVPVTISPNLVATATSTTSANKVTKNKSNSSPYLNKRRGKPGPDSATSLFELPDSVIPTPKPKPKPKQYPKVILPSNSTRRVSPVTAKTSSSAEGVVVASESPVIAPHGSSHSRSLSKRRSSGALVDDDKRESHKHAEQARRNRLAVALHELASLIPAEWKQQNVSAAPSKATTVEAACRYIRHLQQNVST
# Test: relative binding free energy (BET-seq); higher = weaker binding
# Conditions: reference: library average
row,Sequence,relative binding free energy [kcal/mol]
1,CTGTCCACGTGAGGGG,0.09
2,GGAGACACGTGCGGCG,0.19
3,TGGGGCACGTGTATAC,-0.21
4,GGCTTCACGTGAATGG,0.45
5,TGCTTCACGTGGATGG,0.15
6,GTGTCCACGTGGGTCG,0.08
7,ATGGGCACGTGTTGTT,-0.08
8,TATGGCACGTGTGGCG,-0.01
9,AGGGACACGTGCTAGG,-0.03
10,ATTGTCACGTGTTAAC,0.19
11,AATTTCACGTGTAGGA,0.26
12,CGTGGCACGTGGTCGA,-0.18
13,GGAGTCACGTGTCTGG,0.25
14,GAGTCCACGTGTGAGT,0.33
15,AGGTTCACGTGGGCAA,0.1
16,TAGGGCACGTGTCGTA,-0.06
17,GGGGGCACGTGCCATT,-0.09
18,GTTGACACGTGGTAAT,0
19,AAGAGCACGTGCGGGG,-0.15
20,ATGATCACGTGGGAAA,0.26
21,ATGTACACGTGCTGGT,-0.01
22,TAGTGCACGTGCTTGA,0.04
23,GGCATCACGTGGGTTT,0.19
24,GTTCGCACGTGTGGAA,0.18
25,GGAGGCACGTGTATTA,-0.1
26,TTGTGCACGTGGAACA,-0.04

row,Sequence,relative binding free energy [kcal/mol]
1,GTGCGCACGTGGTCGG,-0.23
2,ATGCACACGTGGGTTT,-0.1
3,AGCGGCACGTGATGAT,0.14
4,GGGCGCACGTGAGAGT,0.2
5,AATGCCACGTGGTTTA,-0.14
6,GAACGCACGTGAGGGA,0.38
7,TTCTGCACGTGTAAGG,0.19
8,GCGTCCACGTGGGGGG,-0.05
9,CTTGGCACGTGAAGGT,0.12
10,TATTCCACGTGGTGGG,-0.01
11,TGAGGCACGTGTGTAG,-0.07
12,CGGAGCACGTGGGGCT,-0.21
13,ATGATCACGTGGTTCG,0.07
14,TATTACACGTGCTGTG,0.03
15,GGCGTCACGTGGTAGG,0.09
16,GGGTACACGTGTTATT,0.15
17,GGGTTCACGTGCCGGT,0.45
18,GCTTGCACGTGTATGG,0
19,ATTCGCACGTGGGGCT,-0.23
20,GATGACACGTGTAATG,0.36
21,TTTAACACGTGCTGTA,-0.04
22,TGAACCACGTGATGTG,0.16
23,TTGAGCACGTGGCGGC,-0.17
24,TAGGACACGTGGACGG,-0.01
25,ATATTCACGTGGTCTA,0.08
26,TTTGGCACGTGTGACG,-0.04

row,Sequence,relative binding free energy [kcal/mol]
1,TGGTTCACGTGGGACG,0.36
2,TGGATCACGTGTGTCG,0.22
3,GGATACACGTGGTGGA,-0.04
4,CAGGCCACGTGGGGAG,-0.12
5,GTTATCACGTGGTAGG,0.15
6,AGAAACACGTGTTGGA,0.13
7,CTGTTCACGTGGGGTT,0.18
8,TGGGTCACGTGGCAGC,0.05
9,TGTTTCACGTGTAGGC,0.37
10,TTGCGCACGTGTATAT,-0.09
11,TTTGGCACGTGATTTT,0.07
12,GTTTCCACGTGTGTTA,0.2
13,TAATGCACGTGAGTAG,0.1
14,CGTGGCACGTGTAAGG,0.14
15,ATGAACACGTGTTTTG,-0.06
16,GGGCGCACGTGTTATG,0.05
17,CTAGTCACGTGATGTG,0.11
18,AGGGTCACGTGGTAAA,0.11
19,TGCGTCACGTGCATGG,0.05
20,ATGTACACGTGCAGTG,-0.06
21,TGCGTCACGTGCTAGG,-0.07
22,GTGGTCACGTGTAAGG,0.16
23,GGGGGCACGTGGTGTT,-0.12
24,CAGTTCACGTGAAGTT,0.41
25,TGCGGCACGTGTTGCG,-0.19
26,GAAGGCACGTGTATTT,0.05

row,Sequence,relative binding free energy [kcal/mol]
1,AGGGTCACGTGAGCGC,0.25
2,TACGTCACGTGGGTAT,-0.12
3,TCAAGCACGTGGTGTG,-0.22
4,TAAGGCACGTGTCGGA,-0.03
5,AGAGGCACGTGTCGTG,-0.07
6,CGCTGCACGTGTAGTT,0.03
7,GTAGGCACGTGGTCTT,-0.13
8,GATGGCACGTGAAGTG,0.43
9,GTTCACACGTGGGGGT,0.08
10,GGACTCACGTGGTGTA,0.21
11,GTTTTCACGTGTGCTG,0.23
12,TTGGGCACGTGTTAGG,-0.04
13,AAGTTCACGTGCGTAG,0.2
14,TAATTCACGTGGGATG,0.1
15,GGCGGCACGTGGCTAG,-0.14
16,AGATGCACGTGATAGG,-0.02
17,AAAGGCACGTGTACGG,-0.17
18,TGTATCACGTGGACAT,0.21
19,TGGTGCACGTGTATAG,-0.08
20,TTCTGCACGTGCGGGA,-0.04
21,AGAGGCACGTGGCCTG,-0.11
22,TTTGGCACGTGCATAT,-0.18
23,GAAGGCACGTGTTGGG,-0.03
24,GGGTGCACGTGGTTGC,-0.04
25,TGATTCACGTGTAGAG,0.17
26,AGCGTCACGTGTTGTC,0.07

row,Sequence,relative binding free energy [kcal/mol]
1,GTGGACACGTGCTTAT,0.09
2,TTGGTCACGTGGCATG,0.04
3,GTGCGCACGTGTTGTC,-0.1
4,GAAGGCACGTGGTAGG,-0.22
5,GGGTTCACGTGGTGAA,0.2
6,TTAATCACGTGGAAGG,0.2
7,TGTTGCACGTGTGATG,0.05
8,TGGAGCACGTGCGGTC,-0.09
9,AAGAGCACGTGCTGTT,-0.07
10,CGTTTCACGTGTTGGT,0.21
11,GTAGTCACGTGCGTGT,0.07
12,GGTGTCACGTGGATCG,0.14
13,GGTGCCACGTGCGGTA,-0.11
14,AGCGTCACGTGGGGAG,-0.22
15,GTGCGCACGTGAAAGG,0.33
16,CATTTCACGTGTTAGG,0.28
17,TGGGTCACGTGGACTC,0.31
18,TTGGGCACGTGTCGCA,-0.15
19,GATACCACGTGTGGGT,-0.08
20,GATTTCACGTGTGTGG,0.25
21,TACAGCACGTGGTGGG,-0.12
22,TGGCGCACGTGAGAGG,0.04
23,TGAATCACGTGAGGAT,0.32
24,TTACGCACGTGTTTGA,-0.21
25,CGGTTCACGTGGCTGT,0.13
26,GCATTCACGTGGAGGT,0.3

row,Sequence,relative binding free energy [kcal/mol]
1,GGTAACACGTGATGTT,0.19
2,AGTTACACGTGTTGAG,0.21
3,AGGTACACGTGATTGG,0.13
4,TATTACACGTGGTATC,-0.05
5,CTGAGCACGTGTTGAG,0.02
6,TCATTCACGTGCTTGG,0.38
7,TATTCCACGTGATGAG,0.15
8,GAATTCACGTGGAAGT,0.48
9,AAGAGCACGTGTGGGT,-0.09
10,TATTGCACGTGATCTG,0.13
11,GATAGCACGTGCGGTT,-0.04
12,GTTTACACGTGATAGT,0.11
13,TGGGGCACGTGGTGCC,-0.16
14,AGGTGCACGTGGCGAT,0.02
15,TGTTCCACGTGTTAAG,0.2
16,TGTGACACGTGGTGCT,-0.09
17,ACTGGCACGTGAGGTA,0.02
18,AGCGCCACGTGGGGGA,-0.2
19,TTTTTCACGTGTCGCG,0.31
20,TATCCCACGTGGGGGG,-0.14
21,TGAGGCACGTGGCGTC,-0.29
22,TAGGTCACGTGTGCCG,0.11
23,GGAAGCACGTGTGATG,-0.1
24,CGATTCACGTGCTTGT,0.36
25,GGGCGCACGTGGTGAC,-0.04
26,AGTGCCACGTGTGGTT,0.07

row,Sequence,relative binding free energy [kcal/mol]
1,AGTGTCACGTGTAGGA,-0.07
2,GTTAACACGTGAGGAG,0.09
3,TTCATCACGTGAGAGT,0.34
4,CTGTCCACGTGGTAGG,0.11
5,GGTAGCACGTGAGTAT,0.15
6,TGTAGCACGTGGGTTG,-0.18
7,TTGAACACGTGTGAAT,0.18
8,CGGAACACGTGGTTGG,0.03
9,TCGTGCACGTGTCTTG,-0.07
10,TGGCACACGTGGTTGG,0.04
11,TGGGCCACGTGCGGGT,-0.16
12,TTATGCACGTGGTCTT,-0.13
13,GTTGTCACGTGTGTAG,0.09
14,TTGGGCACGTGTCGTA,-0.11
15,TTTAGCACGTGAAGTA,0.24
16,GTTACCACGTGGTGTT,-0.11
17,ATGGTCACGTGTAGAG,0.14
18,TAGGGCACGTGGCCAG,-0.17
19,CGGGGCACGTGGGGAT,-0.17
20,CCTGTCACGTGGGTGG,-0.13
21,CACTGCACGTGGGTTG,-0.13
22,TGCTGCACGTGGGTAA,-0.17
23,GCTTTCACGTGTGGGA,0.2
24,TGCAGCACGTGGTATG,-0.13
25,TAAGTCACGTGATAAT,0.17
26,TACTGCACGTGGGGAT,-0.14

row,Sequence,relative binding free energy [kcal/mol]
1,TTAAGCACGTGAAGGG,0.31
2,AGTTTCACGTGATTGG,0.32
3,CAGGGCACGTGATGGT,-0.03
4,CTGGGCACGTGGAAGG,-0.11
5,GTTTGCACGTGTGTCC,0.13
6,CAAGTCACGTGAGGTG,0.26
7,ATTTTCACGTGCTTGT,0.26
8,TGTTTCACGTGTATCA,0.2
9,ATTTGCACGTGCAAAT,0.04
10,TATGGCACGTGATAGA,-0.12
11,GTTTGCACGTGGGGAA,-0.06
12,TAGGTCACGTGACGAG,0.17
13,TTGGACACGTGTTTAC,0.12
14,AGCGTCACGTGCGTGG,-0.04
15,CTTGCCACGTGTGGTA,0
16,GGTTCCACGTGAAAGG,0.36
17,AGTGACACGTGAATGT,0.23
18,GTGTTCACGTGGTGCC,0.09
19,AGGGTCACGTGCAGTA,0.03
20,AGTGTCACGTGTGCAT,0.1
21,GTAAACACGTGTTGGA,0.05
22,ATTGACACGTGTTCTA,0.05
23,TTATGCACGTGAATAT,0.08
24,TAAGCCACGTGGTGGT,-0.17
25,GGATGCACGTGTGTAA,0.11
26,ATGGTCACGTGAGAGG,0.25

row,Sequence,relative binding free energy [kcal/mol]
1,GGGATCACGTGATGTG,0.25
2,GTTCGCACGTGAGTGA,0.07
3,GCACTCACGTGTGGGG,0.3
4,AGAGGCACGTGCTTTG,-0.22
5,TGCTTCACGTGCTGTG,0.2
6,TTCGGCACGTGCGGGG,-0.16
7,TAATTCACGTGTCTTT,0.27
8,TCTGGCACGTGGGCGG,-0.2
9,TAAGTCACGTGTGTGT,0.05
10,AGTTTCACGTGGGCAG,0.09
11,TTTGACACGTGGGTTT,-0.01
12,AGAATCACGTGGCGGT,0.12
13,AGGGCCACGTGTTGGG,-0.12
14,GCTAACACGTGGGGTG,-0.13
15,GATAACACGTGTGGAG,0.1
16,ATTGGCACGTGAAGCG,0.13
17,GGGCGCACGTGTGGTA,0.01
18,GACATCACGTGTGGTT,0.21
19,AAGGGCACGTGGCGGC,-0.14
20,TTAGTCACGTGGGAGA,-0.04
21,TTCGGCACGTGGCGCG,-0.05
22,AAGTGCACGTGTTACG,-0.04

# Source: the BET-seq Pho4 binding data (Le et al. 2018)
